In all, about 48,000 compounds went through this assay and about 450 (0.94%) were called active. Not shown: some 19% with an inconclusive outcome. The call rests on the fitted dose curve; in most records, active means well fitted inhibition curve with a large enough effect; inconclusive means small, poorly fitted or top-dose-only effect; inactive means no such curve, though single readings can be large or run the other way. Some of the results follow.
assay: Primary qHTS for Identification of Small Molecule Inhibitors of Huntingtin Promoter Activity; details: HEK293 HTT promoter firefly luciferase reporter (activity 0% = vehicle and -100% = no light), 24 h; series mostly up to 57.5 µM; activity change, negative = inhibition: at the top concentration; further: nearly all actives have a fitted effect of over 50% in size
Summary of the method: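 HEK293 Fluc reporter, 2,500 cells/well, 24 h pre-culture; cpds up to 57.5 uM final, 24 h 37 degrees C; Dual-Glo, 10 min RT; normalized vehicle = 0%, zero RLU = -100%.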

Row | SMILES | activity change, negative = inhibition
1 | CCOC(=O)c1ccc(NC(=O)Nc2cccc(OCc3cc(=O)n4ccc(C)cc4n3)c2)cc1 | inactive: -2.26%
2 | COc1ccc(NC(=O)CCc2nc3cccnc3n2Cc2cccs2)c(OC)c1 | inactive: -10.1%
3 | CCCCOc1ccc(NC(=O)CSc2ccc(C(=O)O)cn2)cc1 | inactive: -2.41%
4 | Cc1cc(N2CCN(c3ccccc3F)CC2)n2cnnc2n1 | inactive: -33%
5 | O=C(NCc1ccc(F)cc1)c1ccc2c(c1)N(Cc1ccc(F)cc1Cl)C(=O)CS2 | inactive: -14.3%
6 | CCCSc1ncc(Cl)c(C(=O)Nc2ccc(OC)cc2OC)n1 | inactive: -10.4%
7 | COc1cccc(CNC(=O)CCn2ccc3cc(S(=O)(=O)N4CCCC4)ccc32)c1 | inactive: -15.9%
8 | Cc1ccc(CN2C(=O)SC(Nc3ccccc3)C2=O)cc1 (configuration not stated) | inactive: -13.3%
9 | COc1ccc(NC(=O)Nc2nnc(SCC(=O)Nc3cccc(C)c3C)s2)cc1 | inactive: 11.1%
10 | CCn1cnc2c(=O)oc3ccc(S(=O)(=O)N4CCN(c5cc(C)ccc5C)CC4)cc3c21 | inactive: -17.5%
11 | Cc1ccc(C2C=C(c3ccc(Cl)cc3)Nc3nc(NC(=O)CCC(=O)O)nn32)cc1 (configuration not stated) | inactive: -1.95%
12 | CCCOc1ccc(C(=O)Nc2cc3nn(-c4ccc(CC)cc4)nc3cc2C)cc1 | inactive: -3.54%
13 | COc1ccccc1OCCCn1c(-c2ccc(Cl)cc2)nc2ccccc2c1=O | inactive: -8.5%
14 | CCC(C)Cn1c(COc2ccc(OC)cc2)nc2ccccc21 (configuration not stated) | inactive: -15.7%
15 | CCOC(=O)Cc1c(C)nc2c(-c3ccc(OC)c(OC)c3)c(C)nn2c1C | inactive: -13.7%
16 | Cc1cccc(C(=O)Nc2nnc(S(=O)(=O)N3CCC(C)CC3)s2)c1 | inactive: -11.3%
17 | CCOC(=O)CC(NC(=O)c1cc2cc(OC)ccc2oc1=O)c1ccc(OC)cc1 (configuration not stated) | inactive: -1.46%
18 | O=C(CCC(=O)N1CC2CCCN2c2ccccc21)NCc1ccccc1F (configuration not stated) | inactive: -0.641%
19 | Cc1cccc(OCC(=O)OCc2cc(=O)n3nc(C4CC4)sc3n2)c1 | inactive: -9.98%
20 | O=C(NCc1ccccc1)c1cccc(Nc2nc3ccccc3n3nnnc23)c1 | inactive: 19.1%
21 | O=C(C1CCN(S(=O)(=O)c2cccc3nonc23)CC1)N1CCN(c2ccc(F)cc2)CC1 | inactive: -26.8%
22 | CCOc1ccc(CNC(=O)CCS(=O)(=O)c2cc3c4c(c2)CCN4C(=O)CC3)cc1 | inactive: -27.6%
23 | CCOC(=O)c1c(C)oc2ncnc(Nc3ccc(CC)cc3)c12 | inactive: -16.5%
24 | CC1CCN(C(=O)CN2CCSc3ccc(S(=O)(=O)N(C)C)cc32)CC1 | inactive: -20%
25 | COc1ccc(/C=C/c2nc(-c3ccccc3O)n(-c3ccccc3)n2)cc1OC | inactive: -29.4%

Row | SMILES | activity change, negative = inhibition
26 | CCC(=O)N1CCc2cc(S(=O)(=O)NCCC(=O)NC(C)c3ccccc3)ccc21 (configuration not stated) | inactive: -15.1%
27 | CC(=O)c1ccc(NC(=O)C(Cc2ccccc2)NS(=O)(=O)c2ccc3c(c2)CCC(=O)N3)cc1 (configuration not stated) | inactive: 4.8%
28 | CCn1c(CN2CCC(C)CC2)nc2cc(NC(=O)c3ccccc3[N+](=O)[O-])ccc21 | inactive: -15.2%
29 | Cc1ccc(C)c(Cn2c(=O)c3c(nc4n3CCN4c3ccc(F)cc3)n(C)c2=O)c1 | inactive: -7.29%
30 | CCOC(=O)c1c(C)[nH]c(CCC(=O)NCCCN2CCN(c3cccc(Cl)c3)CC2)c1C | inactive: -29.4%
31 | CC(=O)NCCNC(=O)CCCc1nnc2n(CCC(C)C)c(=O)c3sccc3n12 | inactive: -9.15%
32 | CCc1ccc(OC(=O)CSc2nnc(-c3ccc4c(c3)OCO4)o2)cc1 | inactive: -7.05%
33 | Cc1ccc(NC(=O)C(=O)NCC(c2cccnc2)N2CCOCC2)cc1C (configuration not stated) | inactive: -22.2%
34 | CCOCCCNC(=O)C(c1ccc(OC)cc1)N(Cc1cccs1)C(=O)c1ccc(NC(C)=O)cc1 (configuration not stated) | inactive: -1.09%
35 | Cc1ccc(C(=O)c2oc3ccccc3c2NC(=O)c2cc(=O)c3ccccc3o2)cc1 | inactive: -11%
36 | COc1cccc(-c2cn3c(n2)sc2cc(C(=O)NCc4cccs4)ccc23)c1 | inactive: 30%
37 | COc1ccc2oc(=O)cc(CN3CCN(C(=O)c4ccccc4F)CC3)c2c1 | inactive: -10.6%
38 | CC(=O)Nc1ccc(NC(=O)CC2Sc3ccccc3NC2=O)cc1 (configuration not stated) | inactive: 1.21%
39 | O=C(CCN1CCC(c2ccccc2)C1)c1ccc2c(c1)OCCO2 (configuration not stated) | inactive: 25.1%
40 | CCOc1ccc(CNC(=O)C2CCN(S(=O)(=O)c3c(C)noc3/C=C/c3ccc(C)cc3)CC2)cc1OC | inactive: -15.2%
41 | CCOc1ccc(CNS(=O)(=O)c2ccc3[nH]c4c(c3c2)CCCC4)cc1OC | inactive: -28%
42 | Cc1c(CNCc2ccc(Cl)cc2)c(C(=O)O)c(C)n1Cc1ccc(F)cc1 | inactive: -28.3%
43 | COc1ccc(NC(=O)CSc2nc3nc(C)cc(C)n3n2)cc1 | inactive: -6.21%
44 | COc1cccc(CNC(=O)CCc2nnc3n(C)c(=O)c4sccc4n23)c1 | inactive: 7.7%
45 | CCCN(CCC)CCCNC(=O)C1CCC(CNS(=O)(=O)c2ccc(NC(C)=O)cc2)CC1 (configuration not stated) | inactive: -2.37%
46 | COc1ccc(NC(=O)Cn2c(CCC(=O)O)ccc2-c2ccccc2)cc1Cl | inactive: -13.3%
47 | CCOC(=O)c1c(C)oc2nc(C)nc(Nc3cccc(OC)c3)c12 | inactive: 3.59%
48 | Nc1ccc(S(=O)(=O)Nc2ccccn2)cc1 | inactive
49 | CCOc1ccc(CC(=O)Nc2c(C(=O)c3ccc(F)cc3)oc3ccccc23)cc1OCC | inactive: -7.48%
50 | COC(=O)c1ccc(C2Nc3c(C)cc(C)cc3C3C=CCC32)cc1 (configuration not stated) | inactive: -6.38%

Row | SMILES | activity change, negative = inhibition
51 | COc1ccc(C(CNC(=O)COc2ccc(C)c(C)c2)N2CCCCC2)cc1 (configuration not stated) | inactive: -18.5%
52 | Cc1cc(C)c(NC(=O)Cn2nc3c(cc2=O)CCCC3)c(C)c1 | inactive: 2.25%
53 | COCCCN1C(=O)N(c2ccccc2)C(=O)C1CC(=O)Nc1ccc(F)cc1 (configuration not stated) | inactive: -20.5%
54 | COc1cc(OC)cc(C(=O)Nc2cc3nn(-c4ccccc4)nc3cc2Cl)c1 | inactive: 24%
55 | CCOc1ccc(-c2oc3ccccc3c(=O)c2O)cc1OCC | inactive: 24.7%
56 | O=C(Nc1ccc(S(=O)(=O)Nc2ccccc2)cc1)N1CCCC1 | inactive: -18.4%
57 | COc1ccccc1NC(=O)C1=C(C)Nc2c(C(=O)Nc3ccc(F)cc3)cnn2C1c1ccc(Cl)cc1 (configuration not stated) | inactive: -27.5%
58 | COc1ccc(-c2noc(-c3ccc(NCc4ccc(C)cc4)c([N+](=O)[O-])c3)n2)cc1OC | inactive: -3.02%
59 | Cn1c(=O)c2c(nc(SCC(=O)Nc3ccc(OC(F)(F)F)cc3)n2Cc2cccc(C(F)(F)F)c2)n(C)c1=O | inactive: -24.4%
60 | Cc1ccc(S(=O)(=O)Nc2cc3c(cc2C)n(C)c(=O)c(=O)n3C)cc1 | inactive: -10%
61 | O=S1(=O)c2cccc3cccc(c23)N1CCCN1CCN(c2ccc(F)cc2)CC1 | inactive: -12.8%
62 | O=C(Cn1c(=O)n(-c2ccc(F)cc2)c(=O)c2sc3ccccc3c21)N1CCCC1 | inactive: -8.22%
63 | CCOC(=O)c1sc2ccccc2c1S(=O)(=O)Nc1c(C)cccc1C | inactive: -12.6%
64 | Cc1ccc(CSC2=Nc3ccccc3C3=NC(CCC(=O)N4CCN(c5ccccc5)CC4)C(=O)N23)cc1 (configuration not stated) | inactive: 10.2%
65 | CCOC(=O)c1c(N)n(-c2ccc(C)c(C)c2)c2nc3ccccc3nc12 | inactive: 1.06%
66 | Cc1ccccc1NC(=O)CSc1nc(-c2ccc(F)cc2)c2cccc(C)c2n1 | inactive: 20.2%
67 | COc1cc(CNC(=O)c2cc(-c3ccccc3)n[nH]2)cc(OC)c1OC | inactive: -12.6%
68 | COc1ccc(-n2nc(C(=O)N3CCC(C)CC3)c3c4ccccc4n(C)c3c2=O)cc1Cl | inactive: -13.9%
69 | CCc1nn(CC(=O)NCCc2ccc(OC)cc2OC)c(=O)c2cc3sccc3n12 | inactive: -6.96%
70 | COc1cccc(CNC(=O)Cn2cc3c(n2)-c2c(oc(C(=O)N4CCCC4)c2C)CC3)c1OC | inactive: -22.7%
71 | CCCc1noc(-c2ccc(N3CCCCC3)c([N+](=O)[O-])c2)n1 | inactive: -4.97%
72 | COc1cc(NC(=O)Cn2ncc3c(=O)oc4ccccc4c32)cc(OC)c1OC | inactive: 1.83%
73 | CN(C)S(=O)(=O)N(CC(=O)NCCSCc1ccccc1Cl)c1ccccc1 | inactive: -22%
74 | Cc1cccc(N2CCN(S(=O)(=O)c3cc(Br)cc4c3N(C(=O)C3CC3)CC4)CC2C)c1 (configuration not stated) | inactive: 5.22%
75 | COc1ccc2c(Sc3ccccc3)c(C(=O)NCc3cccc(OC)c3OC)[nH]c2c1 | inactive: -1.75%

Row | SMILES | activity change, negative = inhibition
76 | CCOc1ccc(CCNC(=O)CCCc2nnc3n(CC(C)C)c(=O)c4sccc4n23)cc1 | inactive: -17.4%
77 | CCOC(=O)c1cc(S(=O)(=O)Nc2ccc(OC)c(Cl)c2)[nH]n1 | inactive: -12.1%
78 | CCOC(=O)C1(C)C=C(Nc2ccc(C(N)=O)cc2)C(=O)N1c1ccccc1 (configuration not stated) | inactive: 0.319%
79 | CN1C(=O)Cc2cc(S(=O)(=O)CCC(=O)Nc3cccc(C(F)(F)F)c3)ccc21 | inactive: 0%
80 | CC(C)OCCCn1c(SCc2cccc(Br)c2)nc2c(sc3ccccc32)c1=O | inactive: -11.4%
81 | Cc1ccc(OC(=O)c2cc(-c3ccccc3)nc3ccc(C)cc23)cc1 | inactive: -12%
82 | CC(=O)N1c2ccc(S(=O)(=O)NCC3CCC(C(=O)NCCC(C)C)CC3)cc2CC1C (configuration not stated) | inactive: -7.17%
83 | COc1ccc(-c2cc(NCc3ccc(F)cc3)n3cnnc3n2)cc1 | inactive: -27.2%
84 | Cc1cc(OCC(=O)NCC2(N3CCN(C)CC3)CCCCC2)cc(C)c1Cl | inactive: -17.8%
85 | O=C(Cc1ccccc1)Nc1sc2c(c1C(=O)Nc1ccccc1Cl)CCC2 | inactive: -18.9%
86 | O=c1[nH]c(=O)n([C@H]2O[C@H](CO)[C@@H](O)[C@@H]2O)cc1/C=C\Br | inactive: 5.03%
87 | Cc1ccc(NC(=O)CCc2nnc3n(CC(C)C)c(=O)c4ccccc4n23)cc1C | inactive: -1.11%
88 | Cc1ccc(-n2nc3c(N4CCC(C(=O)N5CCCCC5)CC4)nnc(C)c3c2C)cc1 | inactive: -22.6%
89 | CCCN1C(=O)C(Cc2nc3ccccc3c(=O)n2CC)c2ccccc21 (configuration not stated) | inactive: -8.06%
90 | CCCc1cc(N2CCN(c3cc(Cl)ccc3C)CC2)n2cnnc2n1 | inactive: -30.3%
91 | COc1ccc(CNC(=O)Cn2nc(C)c3nn(-c4ccc(Cl)cc4)c(C)c3c2=O)cc1 | inactive: -5.93%
92 | O=S(=O)(c1ccccc1)c1nnn2c1nc(NCc1cccs1)c1sccc12 | inactive: 0.143%
93 | CCCOc1ccc(N2CC(C(=O)Nc3cccc(Cl)c3Cl)CC2=O)cc1 (configuration not stated) | inactive: -3.56%
94 | Cc1ccc2oc(C(=O)Nc3c(C(=O)Nc4ccccc4)oc4ccccc34)cc(=O)c2c1 | inactive: -12.7% [at 11.5 µM]
95 | Cc1ccc(NC(=O)CCn2cccn2)cc1Cl | inactive: 18%
96 | COc1ccc(NC(=O)Cn2c(=O)n(-c3ccccc3)c(=O)c3c4c(sc32)CCCC4)cc1 | inactive: -9.07%
97 | CCCCN(C)c1nnc(NC(=O)Nc2cccc(C(C)=O)c2)s1 | inactive: -1.38%
